Test results from paper PMC2191977 (The Journal of Experimental Medicine, 1995).
Residue numbers refer to the chain shown, from its start.

Legend:
Experiment in all cases: flow cytometry on cells
[1] = target: T1, B7 R175S (mouse, UniProt Q00609 38-306, R175>S (CGC>AGC))
T1 sequence (looked up): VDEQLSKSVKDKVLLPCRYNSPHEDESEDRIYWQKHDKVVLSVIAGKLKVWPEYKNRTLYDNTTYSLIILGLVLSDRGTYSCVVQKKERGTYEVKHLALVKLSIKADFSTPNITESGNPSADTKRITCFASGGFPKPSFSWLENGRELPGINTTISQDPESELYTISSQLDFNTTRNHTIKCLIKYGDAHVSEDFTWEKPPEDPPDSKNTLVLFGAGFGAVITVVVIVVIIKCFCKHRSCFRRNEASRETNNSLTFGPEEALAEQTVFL

[2] = target: T2, B7 C165G (mouse, UniProt Q00609 38-306, C165G)
T2 sequence (looked up): T1 sequence (looked up) with C128G, S138R

[3] = target: T3, B7 K173E (mouse, UniProt Q00609 38-306, K173E)
T3 sequence (looked up): T1 sequence (looked up) with K136E, S138R

[4] = target: T4, B7 LE/VD (L179V, E180D) (mouse, UniProt Q00609 38-306, L179E180>VD)
T4 sequence (looked up): T1 sequence (looked up) with S138R, L142V, E143D

[5] = target: T5, B7 P174A (mouse, UniProt Q00609 38-306, P174A)
T5 sequence (looked up): T1 sequence (looked up) with P137A, S138R

[6] = target: T6, murine B7 (wild type) (mouse, UniProt Q00609 38-306)
T6 sequence (looked up): T1 sequence (looked up) with S138R

% wild-type B7 binding (normalised to anti-B7 mAb 10.16A.1) [1]: 42%
MF (mean fluorescence, control subtracted) [1]: 334 MF
% wild-type B7 binding (normalised to anti-B7 mAb 10.16A.1) [2]: 10%
MF (mean fluorescence, control subtracted) [2]: 30 MF
% wild-type B7 binding (normalised to anti-B7 mAb 10.16A.1) [3]: 98%
MF (mean fluorescence, control subtracted) [3]: 772 MF
% wild-type B7 binding (normalised to anti-B7 mAb 10.16A.1) [4]: 51%
MF (mean fluorescence, control subtracted) [4]: 281 MF
% wild-type B7 binding (normalised to anti-B7 mAb 10.16A.1) [5]: 11%
MF (mean fluorescence, control subtracted) [5]: 61 MF
% wild-type B7 binding (normalised to anti-B7 mAb 10.16A.1) [6]: 100%
B1: CTLA4Ig (Fc fusion)
chain: not shown
